# PubChem BioAssay AID485281 (National Center for Advancing Translational Sciences (NCATS), 2010)
# In all, about 350,000 compounds went through this assay and about 260 (0.074%) were called active. Inconclusive results, whose numbers are uncertain, are shown with a selection of clear calls. Calls follow the shape of the dose curve; as a rule, active = well fitted inhibition curve with a large enough effect; inconclusive = small, poorly fitted or top-dose-only effect; inactive = no such curve, though single readings can be large or run the other way. Potencies beside an inconclusive call are fits to weak or partial responses and may not hold up.
# Biological target: Ferritin light chain (Equus caballus) (UniProt P02791)
# Sequence of UniProt P02791 (P02791 whole entry, looked up): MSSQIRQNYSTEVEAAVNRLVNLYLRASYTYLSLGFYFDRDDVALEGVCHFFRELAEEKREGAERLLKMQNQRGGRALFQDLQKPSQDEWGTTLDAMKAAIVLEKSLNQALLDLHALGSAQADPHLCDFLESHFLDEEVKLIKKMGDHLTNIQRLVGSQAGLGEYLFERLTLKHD
# Test: qHTS Assay for Identification of Novel General Anesthetics; also: nearly all actives have a fitted effect of over 20% in size
# Settings: apoferritin/1-aminoanthracene competitive binding, fluorescence; series mostly up to 77.5 µM
# Outline: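 Horse-spleen apoferritin (10 uM) was mixed with 50% saturated 1-aminoanthracene in PBS, exposed to compounds for 10 min at room temperature, and read for fluorescence (ex 380 nm, em 535 nm). Competitive displacement was fitted with a four-parameter Hill equation.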
# Potency is read from the fitted curve at half-maximal effect; tags tell the direction and shape of the fitted curve.
row,SMILES,Potency
1,COc1ccc(C)cc1NC(=O)C(C)N(c1ccc(C)cc1)S(C)(=O)=O (stereo not given),"inconclusive: 39.8 µM [inhibitor, partial curve]"
2,CCN1C(=NCc2ccc(OC)cc2)N[C@@H](CCc2ccccc2)[C@H](C(=O)NCc2ccc(OC)cc2)[C@H]1C,"inconclusive: 15.8 µM [inhibitor, partial curve]"
3,Cc1cc2[nH]c(=O)c(=O)[nH]c2cc1S(=O)(=O)N1CCN(c2ccccc2)CC1,"inconclusive: 39.8 µM [inhibitor, partial curve]"
4,Cc1cccc(OCC(=O)NC(=S)N2CCCc3ccccc32)c1,"inconclusive: 22.4 µM [inhibitor, partial curve]"
5,O=C(NCc1cccc(Cl)c1)c1ccc(NC(=O)N2CCSc3ccccc32)cc1,"inconclusive: 15.8 µM [inhibitor, partial curve]"
6,CC(Oc1ccccc1)C(=O)Nc1ccc(C(=O)OCc2cc(=O)n3nc(C4CC4)sc3n2)cc1 (stereo not given),inactive
7,O=C(CCN1CCN(S(=O)(=O)c2ccc(Cl)cc2)CC1)Nc1ccc(F)cc1,inactive
8,CCNC(=S)N1CCN(c2ccc([N+](=O)[O-])cc2)CC1,"inconclusive: 28.2 µM [inhibitor, partial curve]"
9,COc1cc(CNCCCCO)ccc1OCc1ccccc1F,"inconclusive: 35.5 µM [inhibitor, partial curve]"
10,Cc1ccc(S(=O)(=O)c2c(CO)c(-c3ccccc3)nn2C)cc1,"inconclusive: 28.2 µM [inhibitor, partial curve]"
11,O=C(CSc1nc2ccccc2s1)Nc1cc(S(=O)(=O)N2CCOCC2)ccc1O,inactive
12,CCCCNS(=O)(=O)c1ccc(OC)c(Cl)c1Cl,"inconclusive: 11.2 µM [inhibitor, partial curve, poor fit]"
13,Cc1cccc(S(=O)(=O)NCCc2ccccc2)c1,"inconclusive: 7.08 µM [inhibitor, partial curve]"
14,CCc1ccc(NC(=O)c2cnn(-c3c(C)cccc3C)c2C2CCN(C(=O)OC(C)(C)C)CC2)cc1,"inconclusive: 3.55 µM [inhibitor, partial curve]"
15,Cc1c(C(=O)NCc2ccc3c(c2)OCO3)oc2ccc(S(=O)(=O)N3CCCCCC3)cc12,"inconclusive: 3.55 µM [inhibitor, partial curve, poor fit]"
16,O=C(Nc1ccc(CN2CCCCC2)cc1)c1c(F)c(F)c(F)c(F)c1F,"inconclusive: 12.6 µM [inhibitor, partial curve]"
17,CC(=O)C1=C(NC(=O)c2ccccc2F)C[C@@H]2[C@H]1C2(C)C,"inconclusive: 39.8 µM [inhibitor, single point]"
18,Cc1c(C(=O)N2CCCCCC2)c(S(=O)(=O)Nc2cccc(C#N)c2)c(C)n1C,inactive
19,COc1cc(C)ccc1OCc1cc(C(=O)N2CCCCCC2)no1,"inconclusive: 17.8 µM [inhibitor, partial curve]"
20,CC(C)(C)n1c(O)c2ccc(C(=O)N=NC(=O)c3ccccc3)cc2c1O,"inconclusive: 14.1 µM [inhibitor, partial curve]"
21,Clc1ccc(/C=N/Nc2nnc(-c3ncc[nH]3)c3ccccc23)cc1,"inconclusive: 20 µM [inhibitor, partial curve]"
22,CCOC(=O)c1ccc(NC(=S)N2CCSC2c2c(F)cc(F)cc2F)cc1 (stereo not given),inactive

row,SMILES,Potency
1,O=C(Cn1cnc2onc(-c3ccc(F)cc3)c2c1=O)N1CCN(c2ccc(F)cc2)CC1,inactive
2,Cc1ccc(CN2C(=O)SC(Nc3ccc(Cl)cc3)C2=O)cc1 (stereo not given),inactive
3,O=C(CN1C(=O)NC2(CCCC2)C1=O)Nc1cc(Cl)ccc1N1CCCCC1,"inconclusive: 56.2 µM [inhibitor, single point]"
4,Cc1ccccc1N(CC(=O)Nc1ccc(S(=O)(=O)N2CCOCC2)cc1)S(C)(=O)=O,inactive
5,O=c1/c(=C/c2ccco2)sc2n1CN(c1ccccc1)CN=2,inactive
6,CSc1ccc(S(=O)(=O)N2CCC(C(=O)NCCCn3ccnc3)CC2)cc1,inactive
7,CCc1ccc(OC(=O)CN2C(=O)c3ccccc3C2=O)cc1,"inconclusive: 39.8 µM [inhibitor, partial curve]"
8,CC1(C)COC(/C=C/c2cccc([N+](=O)[O-])c2)=N1,"inconclusive: 35.5 µM [inhibitor, single point]"
9,CC(C)Oc1ccc(CNC(=S)Nc2ccccc2)cc1Cl,"inconclusive: 28.2 µM [inhibitor, single point]"
10,Cc1cccc(Oc2cc([N+](=O)[O-])cc3c2C(=O)Nc2ccccc2O3)c1,"inconclusive: 17.8 µM [inhibitor, partial curve]"
11,CCCCN(CC)C(=O)Cc1cn(C)c2ccccc12,"inconclusive: 39.8 µM [inhibitor, partial curve]"
12,CCCCOC(=O)c1ccc(NC(=O)CSc2nncn2C)cc1,"inconclusive: 39.8 µM [inhibitor, partial curve]"
13,CCCCCCCNC(=O)CN1N=C(c2ccc(C)cc2)CCC1=O,"inconclusive: 7.94 µM [inhibitor, partial curve]"
14,CC(C)(C)C(=O)CSc1nc2ccccc2o1,"inconclusive: 25.1 µM [inhibitor, partial curve]"
15,CCOC(=O)c1ncc2[nH]c3cccc(OC(C)C)c3c2c1C,"inconclusive: 25.1 µM [inhibitor, single point]"
16,Cc1ccc(O)c(C(=O)c2cnc3c(c2)COc2ccc(C)cc2-3)c1,"inconclusive: 35.5 µM [inhibitor, single point]"
17,CCC(=O)Nc1c2c(nn1-c1ccc(C)cc1C)CSC2,"inconclusive: 39.8 µM [inhibitor, single point]"
18,COc1ccccc1CNC(=O)CCn1c(=O)c2ccccc2n(CC(=O)Nc2cc(Cl)ccc2C)c1=O,inactive
19,COc1cccc(C(=O)Nc2ccc(C3CC3(Cl)Cl)cc2)c1 (stereo not given),"inconclusive: 7.08 µM [inhibitor, full curve, poor fit]"
20,O=C(NCc1ccccc1)c1ccc(N2CCC3(CC2)CC(c2ccc(Cl)cc2)=NO3)c([N+](=O)[O-])c1,"inconclusive: 17.8 µM [inhibitor, partial curve]"
21,COc1ccc(C(=O)COc2cccc(NC(=O)c3ccco3)c2)cc1,"inconclusive: 50.1 µM [inhibitor, partial curve]"
22,O=C(OCCNC(=O)c1ccc2ccccc2n1)c1ccc(F)cc1,"inconclusive: 31.6 µM [inhibitor, partial curve]"

row,SMILES,Potency
1,CCOC(=O)n1c(=O)oc2ccc(Cl)cc21,inactive
2,O=C(Nc1cccc(C(=O)OCc2cc(=O)n3c4c(sc3n2)CCCC4)c1)c1cccc(F)c1,inactive
3,Cc1ccccc1C(=O)Oc1cccc2c(O)cccc12,"inconclusive: 22.4 µM [inhibitor, partial curve]"
4,COc1ccc(/C=C/C(=O)C23CC4CC(CC(C4)C2)C3)cc1CN1CCOCC1,"inconclusive: 25.1 µM [inhibitor, partial curve]"
5,COc1ccc(COC(=O)c2ccc(Cl)c(S(=O)(=O)N3CCOCC3)c2)cc1F,"inconclusive: 31.6 µM [inhibitor, partial curve]"
6,Fc1cccc(CN2CCSCC2)c1,"inconclusive: 31.6 µM [inhibitor, single point]"
7,O=S(=O)(c1ccc(Br)s1)n1cccn1,"inconclusive: 44.7 µM [inhibitor, single point]"
8,NCCNc1ccc(C(=O)N2c3ccccc3Sc3ccccc32)cc1[N+](=O)[O-],"inconclusive: 39.8 µM [inhibitor, single point]"
9,CCOc1cc(/C=C2/SC(=S)N(CC(=O)O)C2=O)ccc1OC(=O)c1cccs1,"inconclusive: 25.1 µM [inhibitor, single point]"
10,CN(C)/N=C/c1ccc(Sc2ccccc2[N+](=O)[O-])o1,"inconclusive: 22.4 µM [inhibitor, partial curve]"
11,COc1cc(NC(=O)c2sc3ncn(CC(=O)N4CCC(C)CC4)c(=O)c3c2C)cc(OC)c1OC,"inconclusive: 28.2 µM [inhibitor, single point]"
12,CC(Oc1ccc(NC(=O)c2ccco2)cc1)C(=O)N1c2ccccc2CC1C (stereo not given),"inconclusive: 25.1 µM [inhibitor, partial curve]"
13,CC(C)(C)c1ccc(OCc2ccc(C(=O)NCc3cccnc3)o2)cc1,"inconclusive: 25.1 µM [inhibitor, partial curve]"
14,CCCCN(C)C(=O)CSc1c2c(nc3ccc(Cl)cc13)CCCC2,"inconclusive: 35.5 µM [inhibitor, partial curve]"
15,Cc1cc(NC(=O)Cn2nc3c(cc2=O)CCCC3)ccc1Br,"inconclusive: 31.6 µM [inhibitor, partial curve]"
16,O=C(CSCc1ccccc1)N1CCc2ccccc21,"inconclusive: 25.1 µM [inhibitor, partial curve]"
17,CCCCCCCCCSc1n[nH]c(N)n1,"inconclusive: 31.6 µM [inhibitor, partial curve]"
18,CCOc1ccc2[nH]c(=O)c(C(c3nnnn3Cc3ccco3)N3CCC(C)CC3)cc2c1 (stereo not given),"inconclusive: 28.2 µM [inhibitor, partial curve]"
19,O=C(NCCCN1CCCCCC1)c1ccc2c(Cl)c3c(nc2c1)CCCC3,"inconclusive: 15.8 µM [inhibitor, partial curve]"
20,Cc1cc(Cl)ccc1C(=O)C1CCCN(C(=O)c2ccc3ncccc3c2)C1 (stereo not given),"inconclusive: 44.7 µM [inhibitor, single point]"
21,FC(F)(F)c1cnc2c(-c3ccc(Cl)cc3Cl)noc2c1,"inconclusive: 28.2 µM [inhibitor, partial curve, poor fit]"
